# Assay results taken from paper PMC4336329 (PLoS ONE, 2015).
# The whole screen tested about 310,000 compounds, of which about 2,200 (0.71%) showed an effect of 50% or more. The effect is printed as a negative number. The list shows a part of the results.
# Biological target: human ether-à-go-go-related gene (hERG) potassium channel (human, UniProt Q12809)
# Assay: primary screen, population patch clamp on CHO cells stably expressing hERG
# human ether-à-go-go-related gene (hERG) potassium channel, sequence (Q12809 whole entry, looked up): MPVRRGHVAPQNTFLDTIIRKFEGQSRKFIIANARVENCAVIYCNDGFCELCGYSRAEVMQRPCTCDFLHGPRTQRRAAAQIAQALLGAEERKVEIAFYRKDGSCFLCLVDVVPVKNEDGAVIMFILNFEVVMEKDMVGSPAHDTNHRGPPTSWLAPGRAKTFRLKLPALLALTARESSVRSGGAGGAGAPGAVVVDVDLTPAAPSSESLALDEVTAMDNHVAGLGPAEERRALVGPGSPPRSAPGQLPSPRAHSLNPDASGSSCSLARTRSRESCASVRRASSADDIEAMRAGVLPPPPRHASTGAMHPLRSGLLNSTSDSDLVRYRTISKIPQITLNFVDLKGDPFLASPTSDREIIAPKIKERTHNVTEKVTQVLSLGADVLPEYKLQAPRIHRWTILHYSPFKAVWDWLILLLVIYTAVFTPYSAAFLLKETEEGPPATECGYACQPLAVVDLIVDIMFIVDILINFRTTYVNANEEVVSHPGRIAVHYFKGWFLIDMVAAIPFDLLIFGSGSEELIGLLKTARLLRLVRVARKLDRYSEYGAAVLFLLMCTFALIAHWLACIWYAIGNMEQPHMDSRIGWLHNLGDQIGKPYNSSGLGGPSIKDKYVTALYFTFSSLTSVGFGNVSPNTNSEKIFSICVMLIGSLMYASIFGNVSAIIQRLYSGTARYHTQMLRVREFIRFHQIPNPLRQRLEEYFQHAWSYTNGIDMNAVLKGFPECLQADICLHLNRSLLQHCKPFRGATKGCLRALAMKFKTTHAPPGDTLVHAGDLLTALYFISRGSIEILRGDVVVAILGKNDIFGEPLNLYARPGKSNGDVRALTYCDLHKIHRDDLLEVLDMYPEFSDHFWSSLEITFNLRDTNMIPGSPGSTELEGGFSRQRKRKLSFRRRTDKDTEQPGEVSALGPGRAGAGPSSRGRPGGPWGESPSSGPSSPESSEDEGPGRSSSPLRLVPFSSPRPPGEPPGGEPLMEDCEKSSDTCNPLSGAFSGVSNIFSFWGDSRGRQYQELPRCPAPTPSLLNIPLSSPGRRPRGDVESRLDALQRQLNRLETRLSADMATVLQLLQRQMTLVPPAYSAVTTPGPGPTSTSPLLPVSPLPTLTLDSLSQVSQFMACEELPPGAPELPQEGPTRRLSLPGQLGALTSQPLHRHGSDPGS
row,Structure (SMILES),"hERG current change (%, negative = inhibition) at 1uM [%]"
1,O=C(CSc1nnc(SCc2ccccc2)s1)N/N=C/C=C/c1ccccc1[N+](=O)[O-],2.1
2,Cc1cc(NC(=O)COC(=O)COc2ccc(Cl)cc2C)c([N+](=O)[O-])cc1C,-2.59
3,Clc1ccc(-c2nnc3n2CCCCS3)cc1,3.51
4,COC(=O)CCCCCCCCC(O)CN1CCCCC1.Cl (stereo not drawn),15.2
5,Cc1cc(C)c(S(=O)(=O)N2CCOC2CNC(=O)C(=O)NCc2ccco2)c(C)c1 (stereo not drawn),2.74
6,O=C1CCCc2nc(N3CCN(C(=O)c4ccco4)CC3)ncc21,14.6
7,CC(C)(C)NC(=O)N1CCN(c2nc(-c3ccccc3)ns2)CC1,11.9
8,O=C1[C@@H]2[C@H](C(=O)N1n1cnnc1)[C@H]1C=C[C@@H]2C1,16.1
9,O=C1N(Cc2ccccc2)c2ccccc2C12OCCO2,11.7
10,CCn1cc(/C=C(\NC(=O)c2ccccc2OC)C(=O)NCCCn2ccnc2)c2ccccc21,9.06
11,Cc1nonc1NC(=O)CSc1ccc(-c2ccccc2)nn1,-7.67
12,Cc1cc(C)c(C#N)c(SCCS(=O)(=O)Cc2ccc(Cl)cc2)n1,3.36
13,Cc1ccc(-c2csc3nc(C)n(N)c(=O)c23)o1,18.8
14,O=C(COC(=O)CCc1ccc(S(=O)(=O)N2CCOCC2)cc1)NCc1ccccc1Cl,-2.39
15,Cc1nc(NC(=O)CN(C)S(=O)(=O)c2ccc(Cl)cc2)sc1C,10.2
16,CSc1ccccc1NC(=O)c1noc(C)c1[N+](=O)[O-],-1.6
17,COCC1CCN(Cc2c(C(=O)N3CCN(C4CCCCC4)CC3)nc3ccccn23)C1 (stereo not drawn),15.3
18,NNC(=O)CSc1c(-c2cccs2)[nH]c2ccccc12,7.15
19,CCOc1ccc2[nH]c(=O)c(CN(CC3COCCO3)C(=O)c3ccco3)cc2c1 (stereo not drawn),5.28
20,CC(=O)N1c2ccc(S(=O)(=O)NCC3CCC(C(=O)N4CC(C)CC(C)C4)CC3)cc2CC1C (stereo not drawn),15.4
21,Cc1nn(C)cc1[C@@H]1C[C@H]2CN(Cc3cccc(Cl)c3)C(=O)[C@]23CCCN13,-3.77
22,Cc1cc(NC(=O)CSc2nc3ccccc3c(=O)n2Cc2ccccc2)no1,11.5
23,CCOC(=O)c1c(NC(=O)CCN2CCOCC2)sc2c1CC(C)(C)OC2,-10.6

row,Structure (SMILES),"hERG current change (%, negative = inhibition) at 1uM [%]"
1,Cn1cc(C(=O)NC2C3CC4CC(C3)CC2C4)cn1 (stereo not drawn),13.6
2,CCOc1ccc(NC(=O)CN(C)C(=O)c2ccccc2OCCOc2ccccc2)cc1OCC,2.13
3,COc1ccccc1CCn1c(N)c(C#N)c2nc3ccccc3nc21,1.4
4,COc1ccc(CC(=O)OCC(=O)NC2CCCCC2)cc1,-5.43
5,CCOc1ccc(NC(=O)NNC(=O)COc2ccc3ccccc3c2)cc1,13.5
6,COc1cc(C(=O)Oc2cccc(/C=N/NC(=O)c3cc(C)[nH]n3)c2)cc(OC)c1OC,16.6
7,Cc1ccc(-c2cc(C(=O)N3CCc4ccccc4C3)[nH]n2)cc1C,10.4
8,COc1ccc(C2CC(C(F)(F)F)n3ncc(C(=O)NCC4CCCO4)c3N2)cc1OC (stereo not drawn),2.65
9,CC(=O)N1CCc2c(sc3c2c(=O)n(-c2ccccc2)c(=O)n3CC(=O)NCC2CCCO2)C1 (stereo not drawn),4.41
10,COc1ccc(NC(=O)CCn2nc(C)cc2C)cc1,8.97
11,COC(=O)Cn1c(O)c(N=NC(=O)OC)c2ccccc21,17.7
12,Cc1ccc(NC(=O)c2c(Cl)nc3ccccn23)cc1,7.95
13,O=C(CC1CCCC1)NNC(=O)c1ccc(F)cc1,18.1
14,CCCOc1ccc(C(=O)CCC(=O)OCC(=O)Nc2ccc(Oc3ccccc3)cc2)cc1,1.28
15,Cc1cnc(C(=O)Nc2nnc(C3CC3)s2)cn1,7.89
16,Cc1csc(NC(=O)CSc2nnc(-c3ccoc3C)n2C(C)c2ccccc2)n1 (stereo not drawn),-22.6
17,Cn1c(=O)c(C(=O)NC2CCCCCCC2)c(O)c2ccccc21,9.49
18,CCCSc1nc2ccsc2c(=O)n1CC,3.04
19,COc1ccc2c(C)cc(N3CCOCC3)nc2c1,6.69
20,Cc1cccc(OCCC(=O)Nc2ccccc2C(N)=O)c1,12.3
21,CC(=O)Cc1nsc(NC(=O)c2ccc(COc3ccccc3Cl)o2)n1,17.4
22,CCOC(=O)Nc1nnc(/C=C/c2ccc(OC)cc2)s1,2.36
23,Cc1ccc(NC(=O)Nc2sc(=S)n(C)c2C)cc1,5.1

row,Structure (SMILES),"hERG current change (%, negative = inhibition) at 1uM [%]"
1,COc1cccc(CC(=O)NC2CCCN(Cc3ccc(Cl)cc3)C2)c1 (stereo not drawn),7.04
2,Cc1ccc(OCCNC(=O)c2cccc(C)c2)cc1,13
3,CC(=O)c1cn(N(C)c2ncc(C(F)(F)F)cc2Cl)c(=O)[nH]c1=O,8.81
4,COC(C/C=C/C(=O)[C@H](C)OCc1ccccc1)OC,15.6
5,COc1ccc(-n2nc([N+](=O)[O-])c(=NCc3ccc4c(c3)OCO4)n2O)cc1,12.5
6,CCOC(=O)C1=C(COC(=O)CCOc2ccccc2C)NC(=O)NC1C (stereo not drawn),1.11
7,COc1ccc(CN2CCN(CCCc3ccccc3)C(CCO)C2)c(O)c1 (stereo not drawn),-71.2
8,COc1ccc(Cn2c(-c3ccc(OC)cc3)n[nH]c2=S)cc1,19
9,CC(C)CNC(=O)COC(=O)c1cc(S(=O)(=O)N(C)C)ccc1N1CCCC1,4.3
10,COC(=O)Cn1c(CN2CCOCC2)nc2c1c(=O)[nH]c(=O)n2C,4.01
11,CCN(CC)C(=O)CSC(Nc1cccc(F)c1)=C(C#N)C#N,14.1
12,COc1ccccc1-c1ccc(SCC(=O)NCc2ccc3c(c2)OCO3)nn1,7.59
13,O=C(NCCC1=CCCCC1)C1CCCN(S(=O)(=O)c2cccnc2)C1 (stereo not drawn),1.68
14,Cc1cc2c(cc1S(=O)(=O)N1CCN(c3ccccc3)CC1)OCC(=O)N2,-4.77
15,CCOCCCNS(=O)(=O)c1ccc(NC(=O)c2ccc(OC)c([N+](=O)[O-])c2)cc1,13.1
16,Nc1nnc(CCN2C(=O)CSC2=O)s1,9.09
17,O=C(CCN1CCOCC1)Nc1cc(C(=O)Nc2ccccc2F)ccc1N1CC2CC(C1)c1cccc(=O)n1C2 (stereo not drawn),13.5
18,O=C1NC(=O)N(c2ccc(Cl)cc2)C(=O)/C1=C\c1ccc(Sc2nc3ccccc3[nH]2)o1,-48.6
19,Cc1nnc(SCC(=O)NNC(=O)COc2ccc(Br)cc2)n1C,2.23
20,O=C(N/N=C/c1cn(-c2ccccc2)nc1-c1cccs1)c1ccncc1,7.24
21,COc1ccc(OCC(=O)Nc2ccc3c(c2)nc(CCN2CCC(C)CC2)n3C)cc1,-46.3
22,O=C(COC(=O)C1CC2C=CC1C2)NCc1ccccc1Cl (stereo not drawn),7.84
23,c1ccc(Nc2ccccn2)nc1,8.47

row,Structure (SMILES),"hERG current change (%, negative = inhibition) at 1uM [%]"
1,O=C(O)c1n[nH]c2ccccc12,-0.333
2,COCCN(C(=O)CSc1nnc(-c2cccs2)n1N)c1c(N)n(Cc2ccccc2)c(=O)[nH]c1=O,-7.85
3,O=C(CCNS(=O)(=O)c1ccc(Cl)cc1)N1CCCCCC1,13
4,O=S(=O)(c1ccccc1F)N1CCN(CC(O)c2ccccc2)CC1 (stereo not drawn),6.22
5,Cc1cc(C)c(-c2c(O)c3cccc4c3n(c2=O)CCC4)c(C)c1,2.36
6,CCN(CC)C(=O)C1=C(C)Nc2nnnn2C1c1cccnc1 (stereo not drawn),1.65
7,CCN(CC(=O)Nc1ccc(NC(C)=O)cc1)C(=O)CCCSc1nc2ccccc2[nH]1,-4.05
8,CCC(CC)NC(=O)COC(=O)CCC(=O)c1ccc(Cl)cc1,4.14
9,COc1ccc([C@H]2Cc3cccc(O)c3C(=O)O2)cc1O,8.6
10,COC(=O)[C@H](CC(C)C)NC(=O)NCCC1=CCCCC1,12.6
11,O=P(Nc1ccccc1Cl)(c1ccccc1)c1nc2c(s1)CCCC2 (stereo not drawn),-6.45
12,O=C(C1CCCN(Cc2ccc([N+](=O)[O-])cc2)C1)N1CCCCC1.O=C(O)C(=O)O (stereo not drawn),-1.74
13,CCOC(=O)C1=C(C)NC(=O)C1CC(=O)O (stereo not drawn),27.8
14,CCCCNC(=S)Nc1ccc2nc3n(c(=O)c2c1)CCCCC3,-24.7
15,COC(=O)C1(C)Nc2ccccc2C(=O)N1c1ccccc1OC (stereo not drawn),9
16,CSc1nnc2ccc(-c3ccccn3)nn12,13.2
17,COc1ccc(-c2cc(C(F)(F)F)n3ncc(C(=O)O)c3n2)cc1OC,13.4
18,O=C(O)/C=C/c1ccc(S(=O)(=O)Nc2ccc3[nH]c(=O)[nH]c3c2)cc1,14.3
19,CC(C)N1CCC(NC(=O)Nc2ccc3c(c2)OCO3)CC1,9.69
20,COc1ccc(CCNC(=O)COc2cc(O)c3c(c2)OC(C)(C)CC3=O)cc1,5.73
21,CN(C)CCCN(C(=O)c1ccc(N2C(=O)CCC2=O)cc1)c1nc2c(F)cccc2s1.Cl,4.64
